Test results from the supplement of paper PMC12217912.
This is one part of the list. The full chains were built here from the parent and the listed change. Inactive controls read about 0.05.

B1: TEV protease; numbered along this chain (parent)
chain: MGESLFKGPRDYNPISSSICHLTNESDGHTTSLYGIGFGPFIITNKHLFRRNNGTLVVQSLHGVFKVKDTTTLQQHLVDGRDMIIIRMPKDFPPFPQKLKFREPQREERICLVTTNFQTKSMSSMVSDTSCTFPSGDGIFWKHWIQTKDGQCGSPLVSTRDGFIVGIHSASNFTNTNNYFTSVPKNFMELLTNQEAQQWVSGWRLNADSVLWGGHKVFMVKPEEPFQPVKEATQL

Variants of: B1
Test: raw area under fraction-flipped curve 0-4 h after induction (AUC4h, not background-subtracted), DNA-recorder readout of cleavage of the substrate (dimensionless); higher = more cleavage of the substrate by the protease variant
Details: temperature: 34 °C; time window: 0-4 h after rhamnose induction
Method: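 In vivo DNA recorder in E. coli TOP10(DE3) ΔrhaA at 34 °C. Each TEVp single-site mutant (parent TEVp 0) is paired with a single-site variant of the 7-mer TEVs (canonical ENLYFQ|S). The substrate sits between flexible linkers in a Bxb1-sfGFP-TEVs-SsrA fusion, so cleavage stabilises Bxb1 and speeds flipping of a recombination array, read by NGS. The value is the raw area under the fraction-flipped curve over 0-4 h after rhamnose induction (AUC4h), with ≥20 reads per time point. It is not background-subtracted; inactive controls average about 0.047.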
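Further: Bxb1 expression induced with 0.2% (w/v) L-rhamnose at OD600 near 0.5, cultures sampled hourly, flipped fraction per protease–substrate barcode pair counted by paired-end Illumina sequencing.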

| Variant | area with substrate ENLYFAS | area with substrate ENLYFCS | area with substrate ENLYFES | area with substrate ENLYFFS | area with substrate ENLYFIS | area with substrate ENLYFKS | area with substrate ENLYFMS | area with substrate ENLYFNS | area with substrate ENLYFPS | area with substrate ENLYFRS | area with substrate ENLYFSS | area with substrate ENLYFTS | area with substrate ENLYFVS | area with substrate ENLYFWS | area with substrate ENLYFGS | area with substrate ENLYFYS | area with substrate ENLYFDS | area with substrate ENLYFLS | area with substrate ENLYFHS |
| --- | --- | --- | --- | --- | --- | --- | --- | --- | --- | --- | --- | --- | --- | --- | --- | --- | --- | --- | --- |
| L156F | 0.0499 | 0.0548 | 0.0445 | 0.064 | 0.0584 | 0.0706 | 0.0888 | 0.0597 | 0.0332 | 0.0531 | 0.0812 | 0.0613 | 0.0364 | 0.0467 | – | – | – | – | – |
| V229N | 0.072 | 0.0632 | – | 0.0861 | 0.0508 | 0.0691 | 0.0767 | – | 0.0566 | 0.0524 | 0.0695 | 0.0576 | 0.0615 | – | 0.0577 | 0.0413 | – | – | – |
| D27F | 0.0538 | 0.066 | 0.0541 | 0.0756 | 0.0351 | – | 0.0779 | 0.0681 | – | – | – | 0.0725 | – | 0.0503 | – | – | 0.0707 | – | – |
| H62T | 0.0646 | 0.0661 | – | 0.0676 | 0.0599 | 0.0633 | 0.0622 | – | 0.071 | 0.0638 | 0.0625 | 0.0682 | 0.0536 | – | – | – | 0.0619 | 0.0296 | – |
| G214I | 0.0547 | – | – | 0.102 | – | – | 0.0554 | – | 0.0526 | – | 0.006 | – | – | – | – | – | – | – | – |
| W199T | 0.0606 | 0.0468 | 0.0409 | 0.0687 | 0.0599 | 0.0515 | – | 0.0731 | 0.0687 | 0.0589 | 0.0732 | 0.062 | – | – | – | 0.0789 | – | – | 0.0522 |
| P9E | 0.0629 | 0.07 | – | 0.0683 | 0.0574 | – | 0.064 | – | 0.0493 | – | 0.083 | – | 0.0585 | – | 0.0534 | – | 0.0578 | – | 0.0701 |
